Experimental data published in paper PMC12136788.
The other results are listed elsewhere or left out.

T1: UNK ZnF1-3 (human, UniProt Q9C0B0 31-174)
T1 sequence: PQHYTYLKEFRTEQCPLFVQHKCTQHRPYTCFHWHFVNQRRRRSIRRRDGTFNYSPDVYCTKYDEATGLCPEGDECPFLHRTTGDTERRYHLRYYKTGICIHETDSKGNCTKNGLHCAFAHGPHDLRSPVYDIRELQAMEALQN

B1: chr12:73047227:73047228:+_ENSMUSG00000034574_ENSMUST00000085299|mus_mus|motif|central (ssRNA)
RNA: GGGAGUUCUACAGUCCGACGAUCUUCAAAUCUUUUGGCAAAUUCUAGUUCAUCUUCAUUUCGGAGCAUUUCAAAAAAGUCGGAAUGCCUGUCUAGUGUUGAAUUUUCAUGUUCCCUUAAUUUAUCUAUAACAGGUUGAAUUCCCAACAGAGGAUUGAGCAUCA
B2: chr8:95500983:95500984:-_ENSG00000164944_ENST00000437199|hu_hu|hu_hu_hu_mus_True|58_58 (ssRNA)
RNA: GGGAGUUCUACAGUCCGACGAUCAGAACACAUCUAUCGAGUAAAGGACCGUACAUGACGGCCUCUACCACUGCCUCCCACUAACAACUUUCCUCUCGAGCCUCCACUGCCGCUAUUUGUACUAGCCCAGGACGGUCCCAGGCCCAACAGAGGAUUGAGCAUCA
B3: chr14:45963330:45963331:+_ENSMUSG00000021832_ENSMUST00000022380|perfect_dup|FALSE|FALSE (ssRNA)
RNA: GGGAGUUCUACAGUCCGACGAUCGAUUUUCAGUAUGUCUAAUCUUGCUUGUUCAUUUGGCAAAUCAAUAUGUAUUUUUCUAUCUAAUCUUCCUGGACGCAGCAAAGCAGGAUCCAGUGUAUCUGGUCUGUUUGUAGCCAUGAUCAACAGAGGAUUGAGCAUCA
B4: chr17:64801638:64801639:+_ENSG00000154229_ENST00000413366|hu_mus|hu_hu_hu_mus_False|28_68 (ssRNA)
RNA: GGGAGUUCUACAGUCCGACGAUCUAUAUAUAUAUAUACAUAUGUACACAUAUAUAGUAAAACCCUAAUCUAUCACGUAAAGUAGCCAUUCAUUUUUAAAAUUACAUCUACAUUUAAAAAUUAAUAUAUCUGAUAGAGUGCCAGCAACAGAGGAUUGAGCAUCA
B5: chr16:18151368:18151369:+_ENSMUSG00000043811_ENSMUST00000059589|mus_hu|FALSE|FALSE (ssRNA)
RNA: GGGAGUUCUACAGUCCGACGAUCGGAGACGGUCGAGGCUGUGCAGCCCACGGAAGGCGCGCUCGGGCACGCUGGAGAUGCGGUUGCCGUGCAGGAAGAGGUGUGUGAGGUUGCCCAGGUCGCGGAAGGUGUCAUCAGGCAGUGCAACAGAGGAUUGAGCAUCA
B6: chr22:32894459:32894460:+_ENSG00000100225_ENST00000397426|hu_mus|FALSE|FALSE (ssRNA)
RNA: GGGAGUUCUACAGUCCGACGAUCCCAAAUUGGUCACAGGAAUGGCAGCCGGCUGUCAGCUGACCUACCCCUGCCGGGUCUGAAGGGAAAUCUGUUGUUGGGGAUAGCUCUUCCUGGCAAGAGGGAGUGAGGUCCUGGAAGUGGCAACAGAGGAUUGAGCAUCA
B7: chr4:97781865:97781866:+_ENSMUSG00000028565_ENSMUST00000075448|mus_mus|motif|central (ssRNA)
RNA: GGGAGUUCUACAGUCCGACGAUCUUGACCUAAACUGCCUUGGUCGGUGUUGCAUUUGCUUCCUGCUUGAUGACAACGGAACGGCAAUUUCCUGCUGCUUUCUGGACAAUGAAGCAUGAGCAGACCAGAACUUGGUGUACUGACCAACAGAGGAUUGAGCAUCA
B8: chr5:143849297:143849298:-_ENSMUSG00000045078_ENSMUST00000053498|mus_hu|FALSE|FALSE (ssRNA)
RNA: GGGAGUUCUACAGUCCGACGAUCUACAUUCAGAUCAUAAUAAUUCUUAAAAUGAAUUAUUUCCUCAAUAAACCCAUUUGCUACAUCUGGAAAUCUUGCUUCCGUUUCUUUCACUAGUAGUUCAACGAGCUCUUGAUCUACCUCCAACAGAGGAUUGAGCAUCA
B9: chr9:79603372:79603373:-_ENSMUSG00000032330_ENSMUST00000034881|mus_mus|FALSE|FALSE (ssRNA)
RNA: GGGAGUUCUACAGUCCGACGAUCCACGUGAAGACUGGGAUGACGACAUUAGUUCUGCUUCUUGGGAAAUGCAGCCAUAGCUAACAGAUAGAUGGCAUAGGCUGUGCCACCAAGCGUCAGAGCCAUUGUGGCUCUGUAGAGGAGCAACAGAGGAUUGAGCAUCA
B10: chr16:94664741:94664742:+_ENSMUSG00000040785_ENSMUST00000117648|mus_hu|mus_mus_mus_hu_False|28_88 (ssRNA)
RNA: GGGAGUUCUACAGUCCGACGAUCUGGUACUGAUCUUGGUAGCUGAUACUCAGAAGAAAGGCUGGCCAAGGGUGUAUAUAUGCUGGUGUACUGGGGCAAACCUGGUACCAUGUUAAUGUAUGCUGGCGGUGUCUGGGUGAUAUCCAACAGAGGAUUGAGCAUCA
B11: chr1:39494564:39494565:+_ENSG00000168653_ENST00000372967|hu_hu|hu_hu_hu_mus_True|48_108 (ssRNA)
RNA: GGGAGUUCUACAGUCCGACGAUCAUGUGCACGUCUCAUCGUUUUGUACCGAAGCAAGCACUCUUCGAAGUCAUCGAACUCUAUCUUGCACUCUUUCUUCGCCCGGGUCCCACCGAUCCCGUGUGCACACUCUAUCCACUCUUUCAACAGAGGAUUGAGCAUCA
B12: chr2:198351390:198351391:-_ENSG00000144381_ENST00000345042|hu_hu|hu_hu_hu_mus_False|58_68 (ssRNA)
RNA: GGGAGUUCUACAGUCCGACGAUCUCAUUCCCACCCUCCACAGAAAGGCUGCUUCUGAACUCUCAUGGUGGUGGCAAGCACUAAAAUCCUGAUGCUCACAGAACAGUAGAGAUGCCUCAGUGAUUUAAGUUGAAAGCAGGACACCAACAGAGGAUUGAGCAUCA
B13: chr18:55283160:55283161:-_ENSG00000134440_ENST00000256854|hu_mus|FALSE|FALSE (ssRNA)
RNA: GGGAGUUCUACAGUCCGACGAUCGUUCUUCAUCUGUGACUUAGAAAUAACAUCCCAUCUCUCAUUUUCCUUUUGUGAGUCCACAUAAAUGGUGGGAAAUGGCUCUUUUCCAACUGUCAUCAAAGCCUUUAGGCCUGUUUUAAACAACAGAGGAUUGAGCAUCA
B14: 4757594_4757714_562_5pUTR_ENSMUSG00000044674_ENSMUST00000054294|mouse|control|control (ssRNA)
RNA: GGGAGUUCUACAGUCCGACGAUCCUCCUCGGCGCGGAUUGACUGGGACGGGCAGCGGCGCGGCGGGUGGUGGCUCCCACUGUGAUCCGGGAGAGCUGGUCGCCCGUGCCCUCCGUCGGGGUGCGGCCGCUCUCUGCCCGCUCCCAACAGAGGAUUGAGCAUCA
B15: chr1:163117127:163117128:-_ENSG00000143248_ENST00000313961|hu_mus|hu_hu_hu_mus_False|18_18 (ssRNA)
RNA: GGGAGUUCUACAGUCCGACGAUCUGCUACAAAGGAUGUAACUCAACUCACAGGGCAACUUUUGGAAGCCUGACCAGAUGACUACUUGAUUAGCUCCUUAUAAAAUUCAGAGCGCACAAAGCGAGGCAGAGAAUCCUUCUCCAUCAACAGAGGAUUGAGCAUCA
B16: 24804945_24805959_3534_CDS_ENSG00000090905_ENST00000315183|human|control|control (ssRNA)
RNA: GGGAGUUCUACAGUCCGACGAUCAAUCUCCACAUCCUCUUCCUCUUCCCAGCCAGUGGGGCGAUUUCCAGGCAAUGGCAUAUCAUCACCACACCAGCCAUCUUGCAUAGAUUUUGGCCCAGAUUUGCUUAAUGCUUGUGGACCCAACAGAGGAUUGAGCAUCA
B17: chr16:22092171:22092172:+_ENSG00000185716_ENST00000542527|hu_hu|motif|central (ssRNA)
RNA: GGGAGUUCUACAGUCCGACGAUCCAAUUUAGACAUUCAUCAGCCUGGUAAACAAACUUUGCCAGCAAAUAGAAGUCCGGCGGUUGUAAAGAAAAUUGAUAAGACAAAAAGUACAUAUGAUGACCCAACUACUGUGUUGUUGGGCAACAGAGGAUUGAGCAUCA
B18: 125022421_125022629_1965_CDS_ENSMUSG00000014444_ENSMUST00000067252|mouse|control|control (ssRNA)
RNA: GGGAGUUCUACAGUCCGACGAUCGGUGACCAGCUCCCCCAGGCUCCGCAGCAGCGUCUGGGUCUGUGUGGGCUCAGUGUCGGCCACCGUGACCUCCAAAAGCGCCGCAGGCACCUUUUGCUUCUUCAGCAGCUUCUCCUUCACCAACAGAGGAUUGAGCAUCA
B19: chr4:99997526:99997527:-_ENSG00000197894_ENST00000296412|hu_hu|FALSE|FALSE (ssRNA)
RNA: GGGAGUUCUACAGUCCGACGAUCGGAAUAGUCCACUCCUCCAUCGGUCAUCUCAAUGAGCACUUCCUGGAUGGGUUUACUAAAAUCCUGAGGGUUAAUACAUUCAGUGGCUCCAAACUCUUUGGCCCUUGCAAAUUUAUCUUUCAACAGAGGAUUGAGCAUCA
B20: chr17:1756424:1756425:+_ENSG00000132383_ENST00000254719|hu_mus|FALSE|FALSE (ssRNA)
RNA: GGGAGUUCUACAGUCCGACGAUCUAGGGCACUGGAUUCCCAAUCUUUAAUCCAACGUCUUCAGCAGAUUUCAUAACUUCCAAGUCCAUCAAAACAACUACUUUCCUGCCGUCUUUCAGGGUGUUGACGAUGAACUUGUGGACCCAACAGAGGAUUGAGCAUCA
B21: chr2:35971668:35971669:-_ENSMUSG00000026889_ENSMUST00000028251|mus_hu|FALSE|FALSE (ssRNA)
RNA: GGGAGUUCUACAGUCCGACGAUCGAAUCAGUACAAAUAAUAAACAGUGCUUUAAAUACAAAUAAAUAGCUCUGGUUUCUAAAGGAAACAACUCUAUAUAUAAUUCUAAGUUUUUUCUAAGUUCCUAUUAAAAAUAGAAGACUACAACAGAGGAUUGAGCAUCA
B22: chr7:54825262:54825263:-_ENSG00000132432_ENST00000352861|hu_hu|hu_hu_hu_mus_False|28_38 (ssRNA)
RNA: GGGAGUUCUACAGUCCGACGAUCCUGCCGGCUGGGCUCCACAAACUGCAUUACCUGAUCCAUGUUUGUUGGAUGGCGGAUUGAGAGCGUAGAGACAACGUAGCACUGGAGCUUGCUAGCCCAACGGAACCGGAAGCUGGCAACCAACAGAGGAUUGAGCAUCA

target: T1, UNK ZnF1-3; experiment: nsRBNS (natural sequence RNA bind-n-seq); RBNS binding buffer (assumed for nsRBNS): 25 mM Tris pH 7.5, 150 mM KCl, 3 mM MgCl2, 0.01% Triton X-100, 500 ug/ml BSA, 20 U/ml SUPERase-In, 4 C; UNK is unkempt and MSI1 is Musashi-1; names of the RNAs are library labels; protein concentration not given here; high values mean tight binding

| Binder | binding signal |
| --- | --- |
| B1 | 0.606 enrichment R |
| B2 | 1.15 enrichment R |
| B3 | 0.578 enrichment R |
| B4 | 1.44 enrichment R |
| B5 | 1.46 enrichment R |
| B6 | 1.04 enrichment R |
| B7 | 0.863 enrichment R |
| B8 | 0.511 enrichment R |
| B9 | 1.06 enrichment R |
| B10 | 1.05 enrichment R |
| B11 | 0.603 enrichment R |
| B12 | 1.28 enrichment R |
| B13 | 0.621 enrichment R |
| B14 | 0.339 enrichment R |
| B15 | 1.07 enrichment R |
| B16 | 0.793 enrichment R |
| B17 | 1.07 enrichment R |
| B18 | 0.578 enrichment R |
| B19 | 0.707 enrichment R |
| B20 | 0.497 enrichment R |
| B21 | 1.9 enrichment R |
| B22 | 1.37 enrichment R |
